Laboratory results: PubChem BioAssay (NCATS)
Where “and” joins values, the source holds several entries; their conditions need not be identical. Equal values may be shown once. The inconclusive results got no clear call from the source; some entries with a clear call stand among them for comparison. Where the call is inconclusive, the potency comes from a doubtful curve fit. Calls of active or inactive are those of the source. Calls follow the shape of the dose curve; as a rule, active = well fitted curve in the direction sought with a large enough effect; inconclusive = small, poorly fitted or top-dose-only effect, or another doubt; inactive = no such curve, though single readings can be large; an effect the other way counts as inactive or inconclusive.

Assays:
[1] = tested on: CRL-7250; test: Cytotoxic Profiling of Annotated Libraries Using Quantitative High-Throughput Screening (AID 1296008); conditions: Five cell lines viability, CellTiter-Glo ATP luminescence, 48-72 h; max response: stronger effect = lower value; also: nearly all actives have a fitted effect of over 60% in size
Method in brief: (§1)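 Cytotoxicity was measured as CellTiter-Glo ATP luminescence, read after 10 min at room temperature. Compound treatment of the cells lasted 48 or 72 hr at 37 degrees Celsius in a qHTS format.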

[2] = tested on: HEK293; test: as above; conditions: Five cell lines viability, CellTiter-Glo ATP luminescence, 48-72 h; max response: stronger effect = lower value
Method in brief: as §1

[3] = tested on: MKL-1; test: qHTS assay to identify novel small-molecules to repurpose for Merkel cell carcinoma treatment (AID 1296009); conditions: MCC and control cell lines, CellTiter-Glo viability, 72 h; series mostly up to 46 µM; also: nearly all actives have a fitted effect of over 60% in size
Method in brief: (§2)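 Cell viability measured by CellTiter-Glo following 72 hr compound treatment at 37 degree celsius, with NPC and MIPE libraries tested in 8- and 11-point concentration series.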

[4] = tested on: MKL-2; test: as above; conditions: MCC and control cell lines, CellTiter-Glo viability, 72 h; series mostly up to 46 µM
Method in brief: as §2

[5] = tested on: UISO; test: as above; conditions: MCC and control cell lines, CellTiter-Glo viability, 72 h; series mostly up to 46 µM
Method in brief: as §2

[6] = tested on: WaGa; test: as above; conditions: MCC and control cell lines, CellTiter-Glo viability, 72 h; series mostly up to 46 µM
Method in brief: as §2

[7] = tested on: astro; test: Drug repurposing screens with cells derived from glioblastoma tumor samples (AID 1345199); conditions: viability, ATP luminescence, 48 h; series mostly up to 45.9 µM; also: nearly all actives have a fitted effect of over 40% in size
Method in brief: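 Primary testing used CD133+ neurospheres from four GBM patients, seven concentrations, 48 h exposure and ATP-based viability; confirmation added three slower-growing patient lines.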

[8] = tested on: W2; test: qHTS profiling for inhibitors of Plasmodium falciparum proliferation (AID 504749); also: nearly all actives have a fitted effect of over 60% in size; conditions: P. falciparum in erythrocytes, SYBR Green DNA, 72 h; series mostly up to 28.7 µM
Method in brief: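 In a 72 h erythrocytic culture (37 C, humidified, 5% CO2) at 2.5% hematocrit and 0.3% starting parasitemia, compounds were tested; SYBR Green I in detergent lysis buffer stained parasite DNA overnight.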

[9] = tested on: HaCat; test: Cytotoxic Profiling of Annotated Libraries Using Quantitative High-Throughput Screening (AID 1296008); conditions: Five cell lines viability, CellTiter-Glo ATP luminescence, 48-72 h; max response: stronger effect = lower value; also: nearly all actives have a fitted effect of over 60% in size
Method in brief: as §1

[10] = tested on: KB-3-1; test: as above; conditions: Five cell lines viability, CellTiter-Glo ATP luminescence, 48-72 h; max response: stronger effect = lower value
Method in brief: as §1

[11] = tested on: MCC-13; test: qHTS assay to identify novel small-molecules to repurpose for Merkel cell carcinoma treatment (AID 1296009); conditions: MCC and control cell lines, CellTiter-Glo viability, 72 h; series mostly up to 46 µM; also: nearly all actives have a fitted effect of over 60% in size
Method in brief: as §2

[12] = tested on: MCC-26; test: as above; conditions: MCC and control cell lines, CellTiter-Glo viability, 72 h; series mostly up to 46 µM
Method in brief: as §2

[13] = tested on: C33A; test: Primary qHTS to identify gynecologic anti-cancer compounds using libraries of approved drugs and bioactive compounds (AID 1345084); conditions: Gynecologic cancer cell panel viability, ATPlite luminescence, 48 h; series mostly up to 57.5 µM; also: nearly all actives have a fitted effect of over 55% in size
Method in brief: (§3)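 48 h compound exposure at 37 C, 5% CO2; five-point qHTS. ATPlite luminescence readout of cell ATP.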

[14] = tested on: CASKI; test: as above; conditions: Gynecologic cancer cell panel viability, ATPlite luminescence, 48 h; series mostly up to 57.5 µM
Method in brief: as §3

[15] = tested on: Es-2; test: as above; conditions: Gynecologic cancer cell panel viability, ATPlite luminescence, 48 h; series mostly up to 57.5 µM
Method in brief: as §3

[16] = tested on: HeLa; test: as above; conditions: Gynecologic cancer cell panel viability, ATPlite luminescence, 48 h; series mostly up to 57.5 µM
Method in brief: as §3

[17] = qHTS assay to identify inhibitors of the type 1 interferon - major histocompatibility complex class I in skeletal muscle: Counter screen cell viability and HiBit confirmation (AID 1347412); conditions: iHSKM muscle cells + IFN-b, HiBiT or CellTiter-Glo, 24 h; also: nearly all actives have a fitted effect of over 60% in size
Method in brief: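 Myoblasts (C25cl48, HLA-B HiBiT) seeded in medium without dexamethasone, IFN-b 4 ng/ml added except unstimulated columns; 1 hr later compounds pinned (12-pt 1:3, top 46 uM final). Incubated 24 hrs, lysed 10 min, luminescence measured.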

[18] = tested on: NIH3T3; test: Cytotoxic Profiling of Annotated Libraries Using Quantitative High-Throughput Screening (AID 1296008); conditions: Five cell lines viability, CellTiter-Glo ATP luminescence, 48-72 h; max response: stronger effect = lower value; also: nearly all actives have a fitted effect of over 60% in size
Method in brief: as §1

[19] = tested on: CAOV3; test: Primary qHTS to identify gynecologic anti-cancer compounds using libraries of approved drugs and bioactive compounds (AID 1345084); conditions: Gynecologic cancer cell panel viability, ATPlite luminescence, 48 h; series mostly up to 57.5 µM; also: nearly all actives have a fitted effect of over 55% in size
Method in brief: as §3
Potency is read from the fitted curve at half-maximal effect; tags tell the direction and shape of the fitted curve.

With `Cc1cc(N)c2cc(NC(=O)Nc3ccc4nc(C)cc(N)c4c3)ccc2n1` as the molecule, how does the Potency [1] read?
Its Potency is inconclusive: 21.1 µM [inhibitor, partial curve, poor fit].

And the Potency [2]?
Its Potency is inconclusive: 10.6 µM [inhibitor, partial curve, poor fit].

And the Potency [3]?
Its Potency is inconclusive: 33.5 µM [inhibitor, single point].

And the Potency [4]?
The Potency was “inactive”.

What about the Potency [5] of the same molecule?
Its Potency is “inactive”.

What about the Potency [6] of the same molecule?
Its Potency is inconclusive: 33.5 µM [inhibitor, single point].

What about the Potency [7] of the same molecule?
Its Potency is active: 35.5 µM.

For `CN(Cc1cnc2nc(N)nc(N)c2n1)c1ccc(C(=O)N[C@@H](CCC(=O)O)C(=O)O)cc1`, which Potency [8] is on record?
Its Potency is inconclusive: 0.0536 µM [inhibitor, full curve, poor fit].

And the Potency [1]?
The Potency was active: 119 nM and inconclusive: 93.5 nM [inhibitor, full curve, poor fit].

What about the Potency [9] of the same molecule?
The Potency was inconclusive: 668 nM [inhibitor, full curve] and active: 418 nM.

And the Potency [10]?
Its Potency is inconclusive: 0.0411 µM [inhibitor, full curve].

And the Potency [11]?
The Potency was inconclusive: 5.3 nM [inhibitor, full curve] and inconclusive: 5.26 µM [inhibitor, partial curve, poor fit].

And the Potency [12]?
Its Potency is inconclusive: 13.2 µM [inhibitor, partial curve, poor fit].

What about the Potency [3] of the same molecule?
The Potency was inconclusive: 0.0237 µM [inhibitor, full curve].

What about the Potency [4] of the same molecule?
The Potency was inconclusive: 2.35 µM [inhibitor, full curve].

And the Potency [5]?
The Potency was inconclusive: 0.0047 µM [inhibitor, full curve].

What about the Potency [6] of the same molecule?
Its Potency is inconclusive: 0.264 µM [inhibitor, full curve, poor fit].

What about the Potency [13] of the same molecule?
The Potency was inconclusive: 0.447 µM.

What about the Potency [14] of the same molecule?
The Potency was inconclusive: 0.158 µM [cytotoxic, full curve, poor fit].

What about the Potency [15] of the same molecule?
The Potency was inconclusive: 2.51 µM.

What about the Potency [16] of the same molecule?
Its Potency is active: 199 nM.

For `CCC[C@H](Nc1nc(-c2ccc(NC(=O)NCC)c(OC)c2)ncc1C)c1cccnc1`, which Potency [1] is on record?
Its Potency is inconclusive: 0.0053 µM [inhibitor, full curve, poor fit].

And the Potency [9]?
Its Potency is inconclusive: 3.32 µM [inhibitor, full curve, poor fit].

And the Potency [12]?
Its Potency is inconclusive: 0.0332 µM [inhibitor, full curve].

What about the Potency [3] of the same molecule?
Its Potency is inconclusive: 0.0166 µM [inhibitor, full curve].

And the Potency [4]?
The Potency was active: 0.0187 µM.

And the Potency [5]?
Its Potency is inconclusive: 0.0166 µM [inhibitor, full curve].

What about the Potency [6] of the same molecule?
Its Potency is inconclusive: 0.0074 µM [inhibitor, full curve].

What about the Potency ([17]; HiBiT) of the same molecule?
The Potency was inconclusive: 0.111 µM [inhibitor, full curve].

And the Potency ([17]; Viability)?
The Potency was inconclusive: 0.0991 µM [cytotoxic, full curve].

With `CN1CCN(CCCN2c3ccccc3Sc3ccc(S(=O)(=O)N(C)C)cc32)CC1` as the molecule, how does the Potency [1] read?
Its Potency is inconclusive: 29.9 µM [inhibitor, single point].

What about the Potency [18] of the same molecule?
Its Potency is inconclusive: 33.5 µM [inhibitor, single point].

What about the Potency [11] of the same molecule?
The Potency was “inactive”.

And the Potency [3]?
The Potency was inconclusive: 18.8 µM [inhibitor, single point].

What about the Potency [4] of the same molecule?
The Potency was inconclusive: 26.6 µM [inhibitor, single point].

What about the Potency [6] of the same molecule?
The Potency was inconclusive: 23.7 µM [inhibitor, single point].

What about the Potency [14] of the same molecule?
The Potency was “inactive”.

Which Potency [8] does the source give for `O=S(=O)(O)c1ccc2nc(-c3ccccc3)[nH]c2c1` here?
Its Potency is “inactive”.

And the Potency [1]?
Its Potency is inconclusive: 33.5 µM [inhibitor, single point].

What about the Potency [10] of the same molecule?
Its Potency is inconclusive: 20.6 µM [inhibitor, single point].

What about the Potency [18] of the same molecule?
Its Potency is inconclusive: 26.6 µM [inhibitor, single point].

What about the Potency [11] of the same molecule?
Its Potency is “inactive”.

And the Potency [6]?
Its Potency is inconclusive: 16.8 µM [inhibitor, single point].

What about the Potency [13] of the same molecule?
The Potency was inconclusive: 39.8 µM [cytotoxic, single point].

With `COc1c(C)c2c(c(O)c1C/C=C(\C)CCC(=O)O)C(=O)OC2` as the molecule, how does the Potency [8] read?
The Potency was active: 2.56 µM.

What about the Potency [1] of the same molecule?
Its Potency is inconclusive: 1.06 µM [inhibitor, full curve].

What about the Potency [9] of the same molecule?
The Potency was inconclusive: 0.0019 µM [inhibitor, full curve, poor fit].

And the Potency [11]?
Its Potency is inconclusive: 1.19 µM [inhibitor, full curve].

And the Potency [12]?
The Potency was inconclusive: 21.1 µM [inhibitor, partial curve, poor fit].

What about the Potency [4] of the same molecule?
The Potency was inconclusive: 0.299 µM [inhibitor, full curve].

And the Potency [5]?
Its Potency is inconclusive: 1.68 µM [inhibitor, full curve].

And the Potency [6]?
Its Potency is active: 0.531 µM.

What about the Potency [7] of the same molecule?
The Potency was inconclusive: 0.501 µM [inhibitor, full curve].

And the Potency [13]?
Its Potency is inconclusive: 12.6 µM [cytotoxic, partial curve, poor fit].

And the Potency [14]?
Its Potency is inconclusive: 0.708 µM [cytotoxic, full curve, poor fit].

What about the Potency [15] of the same molecule?
Its Potency is active: 2.82 µM.

What about the Potency [16] of the same molecule?
The Potency was inconclusive: 11200 nM [cytotoxic, partial curve, poor fit].

Which Potency [8] does the source give for `NC(=NCCCCCCN=C(N)/N=C(\N)Nc1ccc(Cl)cc1)/N=C(\N)Nc1ccc(Cl)cc1` here?
Its Potency is active: 0.849 µM.

And the Potency [1]?
Its Potency is inconclusive: 33.5 µM [inhibitor, single point] and inconclusive: 29.1 µM [inhibitor, single point].

What about the Potency [9] of the same molecule?
Its Potency is inconclusive: 26.6 µM [inhibitor, single point] and inconclusive: 16.4 µM [inhibitor, partial curve, poor fit].

And the Potency [3]?
The Potency was active: 6.68 µM.

What about the Potency [13] of the same molecule?
The Potency was inconclusive: 35.5 µM [cytotoxic, single point] and inconclusive: 28.2 µM [cytotoxic, single point].

What about the Potency [19] of the same molecule?
The Potency was inconclusive: 25.1 µM [cytotoxic, partial curve, poor fit] and inconclusive: 35.5 µM [cytotoxic, single point].

And the Potency [14]?
The Potency was inconclusive: 22.4 µM [cytotoxic, single point].

And the Potency [15]?
Its Potency is inconclusive: 39.8 µM [cytotoxic, single point] and inactive.

What about the Potency [16] of the same molecule?
The Potency was inconclusive: 39.8 µM [cytotoxic, single point] and inconclusive: 35.5 µM [cytotoxic, single point].
